Lines with a small IC50 respond at low doses; a fit beyond the top or the lowest dose is shown as a bound at that dose. The AUC spans the tested range (256-fold, ending at the top dose) of the same fit; values near 1 show little effect. For some assays here: Any top dose called inferred is not printed in the source and was worked back from the curve model.
Legend:
Assay in all cases: Viability of human cancer cell lines after 72 h of drug (GDSC screen)
XL-184 = compound: COc1cc2nccc(Oc3ccc(NC(=O)C4(C(=O)Nc5ccc(F)cc5)CC4)cc3)c2cc1OC [XL-184]; details: top dose 5.12 µM; top dose inferred
Method: (§1)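 Human cancer cell lines in 384-well plates, medium with 10% serum, drug for 72 h over a 256-fold dose range (nine 2-fold or five 4-fold steps up to the top dose). Adherent lines were fixed and stained with the nucleic acid dye Syto60, suspension lines read with resazurin; signal relative to control wells, capped at 0 and 100%. One two-parameter sigmoid per drug and line, fitted in a mixed model over all curves with the slope shared within a line.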

Gefitinib = compound: COc1cc2ncnc(Nc3ccc(F)c(Cl)c3)c2cc1OCCCN1CCOCC1 [Gefitinib]; details: top dose 0.5 µM
Method: as §1

WHI-P97 = compound: COc1cc2ncnc(Nc3cc(Br)c(O)c(Br)c3)c2cc1OC [WHI-P97]; details: top dose 10.24 µM; top dose inferred
Method: as §1

S-Trityl-L-cysteine = compound: N[C@@H](CSC(c1ccccc1)(c1ccccc1)c1ccccc1)C(=O)O [S-Trityl-L-cysteine]; details: top dose 5.12 µM; top dose inferred
Method: as §1

Erlotinib = compound: C#Cc1cccc(Nc2ncnc3cc(OCCOC)c(OCCOC)cc23)c1 [Erlotinib]; details: top dose 2 µM
Method: as §1

QL-XI-92 = compound: C=CC(=O)Nc1cc(NC(=O)c2ccc(C)c(NC(=O)c3ccno3)c2)cc(C(F)(F)F)c1 [QL-XI-92]; details: top dose 10.24 µM; top dose inferred
Method: as §1

Vinorelbine = compound: CCC1=C[C@@H]2CN(C1)Cc1c([nH]c3ccccc13)[C@@](C(=O)OC)(c1cc3c(cc1OC)N(C)[C@H]1[C@@](O)(C(=O)OC)[C@H](OC(C)=O)[C@]4(CC)C=CCN5CC[C@]31[C@@H]54)C2 [Vinorelbine]; details: top dose 0.064 µM; top dose inferred
Method: as §1

AG-014699 = compound: CNCc1ccc(-c2[nH]c3cc(F)cc4c3c2CCNC4=O)cc1 [AG-014699]; details: top dose 5 µM; top dose inferred
Method: as §1

NU-7441 = compound: O=c1cc(N2CCOCC2)oc2c(-c3cccc4c3sc3ccccc34)cccc12 [NU-7441]; details: top dose 2 µM; top dose inferred
Method: as §1

EHT 1864 = compound: O=c1cc(CN2CCOCC2)occ1OCCCCCSc1ccnc2cc(C(F)(F)F)ccc12 [EHT 1864]; details: top dose 10 µM; top dose inferred
Method: as §1

Phenformin = compound: N=C(N)NC(=N)NCCc1ccccc1 [Phenformin]; details: top dose 4000 µM; top dose inferred
Method: as §1

Cell Line | AUC (XL-184) | IC50 (XL-184) [µM] | AUC (Gefitinib) | IC50 (Gefitinib) [µM] | AUC (WHI-P97) | IC50 (WHI-P97) [µM] | AUC (S-Trityl-L-cysteine) | IC50 (S-Trityl-L-cysteine) [µM] | AUC (Erlotinib) | IC50 (Erlotinib) [µM] | AUC (QL-XI-92) | IC50 (QL-XI-92) [µM] | AUC (Vinorelbine) | IC50 (Vinorelbine) [µM] | AUC (AG-014699) | IC50 (AG-014699) [µM] | AUC (NU-7441) | IC50 (NU-7441) [µM] | AUC (EHT 1864) | IC50 (EHT 1864) [µM] | AUC (Phenformin) | IC50 (Phenformin) [µM]
JM1 (B-cell lymphoma, suspension) | 0.97 | > 5.12 | 0.991 | > 0.5 | 0.984 | > 10.2 | 0.723 | 1.23 | 0.98 | > 2 | 0.711 | 2.28 | 0.666 | 0.0108 | 0.991 | > 5 | 0.979 | > 2 | 0.966 | > 10 | 0.907 | > 4000
JVM-3 (lymphoid neoplasm, suspension) | 0.915 | > 5.12 | 0.941 | > 0.5 | 0.977 | > 10.2 | 0.987 | > 5.12 | 0.987 | > 2 | 0.987 | > 10.2 | 0.965 | > 0.064 | 0.948 | > 5 | 0.934 | > 2 | 0.954 | > 10 | 0.794 | 1880
KARPAS-299 (anaplastic large cell lymphoma, suspension) | 0.981 | > 5.12 | 0.992 | > 0.5 | 0.988 | > 10.2 | 0.864 | 3.29 | 0.992 | > 2 | 0.957 | > 10.2 | 0.886 | 0.0499 | 0.99 | > 5 | 0.976 | > 2 | 0.97 | > 10 | 0.818 | 1790
KARPAS-422 (B-cell lymphoma, suspension) | 0.986 | > 5.12 | 0.972 | > 0.5 | 0.984 | > 10.2 | 0.745 | 1.59 | 0.987 | > 2 | 0.965 | > 10.2 | 0.66 | 0.011 | 0.979 | > 5 | 0.886 | > 2 | 0.988 | > 10 | 0.687 | 829
KE-37 (lymphoblastic leukaemia, suspension) | 0.93 | 5.07 | 0.989 | > 0.5 | 0.944 | > 10.2 | 0.526 | 0.369 | 0.991 | > 2 | 0.894 | 7.16 | 0.538 | 0.00494 | 0.989 | > 5 | 0.99 | > 2 | 0.957 | > 10 | 0.517 | 275
KGN (ovary, adherent) | 0.757 | 2.12 | 0.981 | > 0.5 | 0.949 | > 10.2 | 0.627 | 0.775 | 0.946 | > 2 | 0.949 | > 10.2 | 0.552 | 0.00571 | 0.928 | > 5 | 0.918 | > 2 | 0.898 | > 10 | 0.281 | 51.9
KMOE-2 (acute myeloid leukaemia, suspension) | 0.97 | > 5.12 | 0.983 | > 0.5 | 0.958 | > 10.2 | 0.934 | > 5.12 | 0.99 | > 2 | 0.873 | 8.06 | 0.83 | 0.0345 | 0.985 | > 5 | 0.929 | > 2 | 0.959 | > 10 | 0.757 | 1240
KNS-81-FD (glioma, adherent) | 0.969 | > 5.12 | 0.963 | > 0.5 | 0.979 | > 10.2 | 0.944 | > 5.12 | 0.95 | > 2 | 0.972 | > 10.2 | 0.913 | > 0.064 | 0.902 | > 5 | 0.95 | > 2 | 0.868 | > 10 | 0.506 | 262
KURAMOCHI (ovary, adherent) | 0.972 | > 5.12 | 0.984 | > 0.5 | 0.978 | > 10.2 | 0.864 | > 5.12 | 0.962 | > 2 | 0.984 | > 10.2 | 0.473 | 0.00335 | 0.948 | > 5 | 0.952 | > 2 | 0.984 | > 10 | 0.884 | > 4000
L-428 (Hodgkin lymphoma, suspension) | 0.992 | > 5.12 | 0.99 | > 0.5 | 0.99 | > 10.2 | 0.812 | 2.34 | 0.993 | > 2 | 0.985 | > 10.2 | 0.92 | > 0.064 | 0.991 | > 5 | 0.973 | > 2 | 0.957 | > 10 | 0.993 | > 4000
L-1236 (Hodgkin lymphoma, suspension) | 0.979 | > 5.12 | 0.978 | > 0.5 | 0.99 | > 10.2 | 0.96 | > 5.12 | 0.99 | > 2 | 0.987 | > 10.2 | 0.978 | > 0.064 | 0.992 | > 5 | 0.985 | > 2 | 0.992 | > 10 | 0.72 | 931
LAMA-84 (chronic myeloid leukaemia, suspension) | 0.531 | 0.388 | 0.959 | > 0.5 | 0.969 | > 10.2 | 0.824 | 3.1 | 0.962 | > 2 | 0.614 | 1.32 | 0.822 | 0.0381 | 0.986 | > 5 | 0.897 | > 2 | 0.91 | > 10 | 0.622 | 544
LB771-HNC (head and neck, adherent) | 0.917 | > 5.12 | 0.891 | > 0.5 | 0.968 | > 10.2 | 0.769 | 2.43 | 0.897 | > 2 | 0.975 | > 10.2 | 0.594 | 0.00771 | 0.982 | > 5 | 0.975 | > 2 | 0.877 | > 10 | 0.734 | 1400
LB831-BLC (bladder, adherent) | 0.977 | > 5.12 | 0.969 | > 0.5 | 0.98 | > 10.2 | 0.918 | > 5.12 | 0.962 | > 2 | 0.949 | > 10.2 | 0.773 | 0.0254 | 0.986 | > 5 | 0.982 | > 2 | 0.966 | > 10 | 0.959 | > 4000
LB1047-RCC (kidney, adherent) | 0.827 | 3.69 | 0.86 | > 0.5 | 0.948 | > 10.2 | 0.841 | 4.22 | 0.889 | > 2 | 0.911 | > 10.2 | 0.887 | > 0.064 | 0.956 | > 5 | 0.912 | > 2 | 0.976 | > 10 | 0.753 | 1490
LS-513 (large intestine, adherent) | 0.914 | > 5.12 | 0.954 | > 0.5 | 0.98 | > 10.2 | 0.852 | 4.19 | 0.777 | 0.838 | 0.951 | > 10.2 | 0.945 | > 0.064 | 0.949 | > 5 | 0.975 | > 2 | 0.981 | > 10 | 0.567 | 385
LU-65 (large cell lung carcinoma, suspension) | 0.89 | > 5.12 | 0.987 | > 0.5 | 0.92 | > 10.2 | 0.894 | > 5.12 | 0.935 | > 2 | 0.977 | > 10.2 | 0.792 | 0.035 | 0.987 | > 5 | 0.987 | > 2 | 0.932 | > 10 | 0.69 | 949
LU-134-A (small cell lung carcinoma, suspension) | 0.95 | > 5.12 | 0.983 | > 0.5 | 0.987 | > 10.2 | 0.858 | 4.66 | 0.987 | > 2 | 0.901 | > 10.2 | 0.808 | 0.0357 | 0.905 | > 5 | 0.977 | > 2 | 0.986 | > 10 | 0.762 | 1520
MEG-01 (chronic myeloid leukaemia, suspension) | 0.636 | 0.744 | 0.984 | > 0.5 | 0.948 | > 10.2 | 0.766 | 1.78 | 0.96 | > 2 | 0.73 | 2.76 | 0.767 | 0.0224 | 0.988 | > 5 | 0.988 | > 2 | 0.982 | > 10 | 0.528 | 296
MLMA (hairy cell leukaemia, semi-adherent) | 0.832 | 3.32 | 0.963 | > 0.5 | 0.928 | > 10.2 | 0.857 | 4.22 | 0.98 | > 2 | 0.746 | 3.26 | 0.728 | 0.018 | 0.979 | > 5 | 0.926 | > 2 | 0.919 | > 10 | 0.549 | 341
MRK-nu-1 (breast, suspension) | 0.97 | > 5.12 | 0.99 | > 0.5 | 0.983 | > 10.2 | 0.568 | 0.482 | 0.987 | > 2 | 0.99 | > 10.2 | 0.51 | 0.00425 | 0.99 | > 5 | 0.99 | > 2 | 0.945 | > 10 | 0.589 | 429
NAMALWA (Burkitt lymphoma, suspension) | 0.944 | > 5.12 | 0.988 | > 0.5 | 0.991 | > 10.2 | 0.557 | 0.445 | 0.987 | > 2 | 0.878 | 7.62 | 0.641 | 0.00917 | 0.991 | > 5 | 0.98 | > 2 | 0.987 | > 10 | 0.382 | 126
NB10 (neuroblastoma, adherent) | 0.93 | > 5.12 | 0.943 | > 0.5 | 0.988 | > 10.2 | 0.97 | > 5.12 | 0.823 | 1.15 | 0.988 | > 10.2 | 0.918 | > 0.064 | 0.915 | > 5 | 0.984 | > 2 | 0.941 | > 10 | 0.931 | > 4000

Source: the supplement of paper PMC4967469
